We go through 54 compounds from PubChem BioAssay AID1347073 (National Center for Advancing Translational Sciences (NCATS), 2019).

Out of some 45,000 compounds screened, about 200 (0.44%) were called active. Inconclusive results (about 7%) are left out. The call rests on the fitted dose curve; in most records, active means well fitted activation curve with a large enough effect; inconclusive means small, poorly fitted or top-dose-only effect; inactive means no such curve, though single readings can be large or run the other way. The list shows a part of the results.

The nature of this assay: qHTS of TDP-43 Inhibitors: NCGC Sytravon Library Screen. Further: 0% is about no effect; nearly all actives have a fitted effect of over 55% in size. The following applies: yeast TDP-43 toxicity rescue, BacTiter-Glo growth, 24 h; series mostly up to 46.1 µM; growth rescue (activation): at the top concentration. The essentials: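 TDP-43-expressing yeast, pregrown in raffinose, seeded at OD600 0.02 in galactose medium with compound for 24 hr at 30 deg C. Growth read by BacTiter-Glo luminescence, so rescue of toxicity appears as activation.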
Regarding `C/C(Cl)=C\Cn1c(NCCCn2ccnc2)nc2c1c(=O)n(C)c(=O)n2C`, the “growth rescue (activation)” value is inactive: 9.35%.
On to `COc1ccccc1-c1nc(C#N)c(N2CCN(C(c3ccccc3)c3ccccc3)CC2)o1`, for which the “growth rescue (activation)” value is inactive: -7.48%.
`Cc1ncoc1C(=O)N1CCCC(CCC(=O)NCc2ccc(F)c(F)c2)C1` (centres undefined): the “growth rescue (activation)” value is inactive: 10.8%.
The figure for `CCOc1ccccc1NC(=O)CCCn1cc([N+](=O)[O-])cn1` is inactive: 23.8%.
The figure for `COc1ccccc1/C=C/C(=O)NCC(=O)N/N=C/c1ccc(C)o1` is inactive: -4.71%; for `COC(=O)c1ccc(C(=O)OC)c(NC(=O)/C=C/C(=O)O)c1` it is inactive: 18.7%.
To `CC(C)(C)/C(O)=C/c1nc2cc(Cl)ccc2oc1=O` belongs inactive: 5.03%; to `COc1ccc(N2CCN(C(=O)Cn3nnc(-c4ccccc4N)n3)CC2)cc1`, inactive: 4.5%; to `O=C(CC1CCCC1)Nc1ccc(Cl)c(S(=O)(=O)N2CCOCC2)c1`, inactive: 1.83%.
On to `O=C(CCSc1ccc(Br)cc1)Nc1cccnc1`, for which the “growth rescue (activation)” value is inactive: 3.45%.
The figure for `O=C(Nc1ccccc1)/C(=C/c1ccc(O)cc1)NC(=O)c1ccco1` is inactive: 7.43%; for `CN(Cc1ccccc1)C(=O)c1ccc2nc([C@H]3C[C@H](O)[C@@H](CO)O3)[nH]c2c1` it is inactive: -0.844%; for `FC(F)(F)C1CCCN(c2nsc3ccccc23)C1` (centres undefined) it is inactive: -92.9%.
The figure for `CCOc1ccccc1NC(=O)COc1ccc2ccc(=O)oc2c1` is inactive: 5.09%; for `CC(C)CCNC(=O)CO/N=C/c1ccccc1OC(F)F` it is inactive: 5.28%; for `Fc1cccc(Cl)c1COc1ccc(-c2nnco2)cc1` it is inactive: 9.28%.
Consider `COC(=O)C1=C(C)NC2=C(C(=O)CCC2)C1c1coc2ccccc2c1=O` (centres undefined), for which the “growth rescue (activation)” value is inactive: -18.9%.
The figure for `O=C(CN1C(=O)NC(Cc2c[nH]c3ccccc23)C1=O)Nc1cccc(S(=O)(=O)N2CCCCCC2)c1` (centres undefined) is inactive: -8.56%; for `O=C(Nc1ccc(S(=O)(=O)N2CCCCC2)cc1)C1CCN(C(=O)c2ccco2)CC1` it is inactive: 2.21%; for `C=CCNC(=O)c1c(Cl)cnn1-c1ccc(C)cc1` it is inactive: 10.3%.
On to `CC(=O)NCCNc1nc2cc(-c3ccsc3)sc2c(=O)n1C`, for which the “growth rescue (activation)” value is inactive: -4.79%.
For `COc1ccc(NCC(=O)Nc2ccc(Br)cc2F)c(OC)c1`, the “growth rescue (activation)” value is inactive: 6.01%.
To `NC(=O)c1nn(Cc2ccccc2)c(=O)c2ccccc12` belongs inactive: 0.0092%; to `CCC(C)c1ccccc1NC(=O)COC(=O)CCc1cc(OC)c(OC)c(OC)c1` (centres undefined), inactive: 8.39%; to `Fc1ccccc1N1CCN(c2ncnc3[nH]ncc23)CC1`, inactive: 21%.
To `O=C(Nc1nnc(SCc2ccc(F)cc2)s1)C1Cc2ccccc2CN1C(=O)c1ccco1` (centres undefined) belongs inactive: -6.6%.
The figure for `O=C(NCCCn1ccnc1)c1ccc(Cl)cc1` is inactive: 1.57%; for `O=C(NCCc1c[nH]c2ccccc12)N[C@@H](Cc1ccccc1)C(=O)O` it is inactive: 3.14%; for `Cc1cccc(CN2CCN(Cc3cccc4nonc34)CC2CCO)n1` (centres undefined) it is inactive: -0.189%.
For `Cc1c(-c2ccccc2)n[nH]c1C(=O)N=Nc1c(O)[nH]c2ccccc12`, the “growth rescue (activation)” value is inactive: 5.33%.
On to `O=C(Nc1ccc(Cl)cn1)c1ccc(Br)c(S(=O)(=O)N2CCCCC2)c1`, for which the “growth rescue (activation)” value was inactive: 12.4%.
In the case of `COc1ccc(NC(=O)C2C3C=CC4(O3)C2C(=O)N(CCN2CCCCC2)C4C(=O)NC2CCCC(C)C2C)cc1` (centres undefined), the “growth rescue (activation)” value was inactive: -16%.
Turning to `O=C(COc1ccc(Cl)cc1Br)N1CCN(c2ccccc2)CC1`, the “growth rescue (activation)” value is inactive: 23.6%.
To `N#CC(C(=O)NCc1ccccc1)c1nc2ccccc2nc1N1CCCC1` (centres undefined) belongs inactive: -1.99%.
`O=S(=O)(Nc1cc(Sc2cccc3cccnc23)c(O)c2ccccc12)c1ccc(F)cc1`: the “growth rescue (activation)” value is inactive: 7.11%.
The figure for `Cc1ccc(S(=O)(=O)N2CCN(C(=O)NCc3ccc(F)cc3)CC2)c(C)c1` is inactive: -4.61%.
To `COc1ccc(OC)c(S(=O)(=O)Nc2c(C)cccc2C)c1` belongs inactive: 9.48%.
The figure for `O=C(CC1C(=O)NCCN1CC(c1ccccc1)c1ccccc1)NC1CC1` (centres undefined) is inactive: -17.8%; for `Cc1ccc(NC2CCCN(C(=O)CN3C(=O)CSC3=O)C2)cc1C` (centres undefined) it is inactive: 14.7%; for `O=C(NCc1ccccn1)C1CCCN(S(=O)(=O)c2cc(Cl)ccc2Cl)C1` (centres undefined) it is inactive: -10.5%.
`CCN(CC)CCNC(=S)Nc1ccc(Cl)cc1`: the “growth rescue (activation)” value was inactive: 21.1%.
To `CCCSc1ncc(Cl)c(C(=O)N(Cc2ccc(Cl)cc2)Cc2ccco2)n1` belongs inactive: 7.58%; to `O=C(COC(=O)Cc1cccs1)Nc1cc(S(=O)(=O)N2CCOCC2)ccc1Cl`, inactive: 2.65%; to `CCCOC(=O)c1ccc(Oc2cn[nH]c2-c2ccc(OC)cc2O)cc1`, inactive: -92.6%.
The figure for `CC(=O)Nc1ccc(NC(=O)COC(=O)c2c(C)nn(-c3ccccc3)c2C)cc1` is inactive: 12.9%; for `O=C1c2cccc3cc(Br)cc(c23)C(=O)N1Nc1ccc(Br)cc1` it is inactive: 9%.
On to `Cc1ccc(/C=C(\NC(=O)c2ccccc2)C(=O)N2CCCC2C(=O)O)cc1` (centres undefined), for which the “growth rescue (activation)” value was inactive: -4.91%.
To `Cc1ccccc1C(=O)NC(=S)Nc1ccc(Cc2ccncc2)cc1` belongs inactive: 16.6%; to `O=C(NC1=NCCS1)c1ccc(Cl)c(Cl)c1`, inactive: 29.6%.
The figure for `C/C(CCc1ccccc1)=N\NC(=S)NCCc1ccccc1` is inactive: 0.135%.
Take `Cc1ccc(S(=O)(=O)NC(C)C(=O)N2CCOCCOCCOCC2)cc1` (centres undefined): the “growth rescue (activation)” value was inactive: 6.38%.
The figure for `COc1ccc(-c2csc(NC(=O)C3=NN(c4ccccc4)C(=O)CC3)n2)cc1` is inactive: 3.23%; for `N#CCC(=O)Nc1ccc(C(=O)OCc2ccccc2Oc2ccccc2)cc1` it is inactive: 33.9%; for `Cc1nn(Cc2ccccc2)c(C)c1NC(=O)CCC(=O)O` it is inactive: -20.6%.
